# Laboratory results as given in PubChem BioAssay AID445 (National Center for Advancing Translational Sciences (NCATS), 2006).
# Among all 110,000 compounds or so, about 40 (0.04%) were called active. Inconclusive means that the source gave no clear call. Such entries were picked first, then a sample of the others. The call rests on the fitted dose curve; in most records, active means well fitted curve in the direction sought with a large enough effect in the signal ratio (not every such curve was filed as active); inconclusive means small, poorly fitted or top-dose-only effect, or a change in a side signal; inactive means flat fitted curve, though single readings scatter; the % refers to the signal ratio. Potencies beside an inconclusive call are fits to weak or partial responses and may not hold up.
# Experiment: IkB Signaling;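 on IkBa stabilization activation: 0% = basal untreated cells and 100% = reference inhibitor full response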
# Details: ABC-DLBCL IkBa-CBG/CBR dual luciferase ratio (green luciferase fused to IkBa over red control in OCI-Ly3 lymphoma cells), 4 h; IkBa stabilization activation: at 57.1 µM (top of the series), scaled: untreated 0%, proteasome inhibitor 100% unless noted
# In short: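 In this assay, an IκBα–CBG68 fusion accumulates when IKK-driven degradation is blocked; native CBR normalizes for cell number. OCI-Ly3 cells were treated 4 h with compound and doxycycline, then green and red light read after Chroma-Glo addition.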
# Potency means the concentration at half of the fitted maximal effect.
SMILES,IkBa stabilization activation,Potency
CC(C)(C)c1ccc(-c2noc(CCC(=O)Nc3cccc(Cl)c3)n2)cc1,inconclusive: 6.37% [signal inhibitor],–
Cc1ccc(S(=O)(=O)Cn2nnnc2CN2CCCC3(CCCCC3)C2)cc1,inconclusive: 3.46% [signal inhibitor],–
CCOc1ccccc1CNC(=O)C1CCCN(S(=O)(=O)c2ccc3c(ccn3C)c2)C1 (stereo not drawn),inconclusive: 0.467% [signal inhibitor],–
Cc1cccn2cc(CCNC(=O)c3ccc(Br)o3)nc12,inconclusive: 15.5% [signal inhibitor],–
O=C(c1cc(-n2cnnc2)ccc1Cl)N1CCN(c2nc(-c3ccccc3)cs2)CC1,inconclusive: 0.418% [signal inhibitor],–
O=C1C(C=NCCCN2CCOCC2)=C(O)c2ccccc21,inactive: -2%,–
COc1ccc(OC)c(S(=O)(=O)NCCc2csc3nc(-c4ccccc4)nn23)c1,inconclusive: -0.783% [signal inhibitor],–
Cc1cccc(N2CCN(C(=O)c3ccc4c(c3)c(C)c(C)n4C)CC2C)c1 (stereo not drawn),inconclusive: 8.47% [signal activator],–
CCc1ccc(CNC(=O)CN2C(=O)CCn3nc(-c4cn(C)c5ccccc45)cc32)cc1,inconclusive: -0.335% [signal inhibitor],–
O=C(CN1C(=O)NC2(CCCCCC2)C1=O)c1ccc2c(c1)OCCO2,inactive: 0.771%,–
COc1ccccc1-c1nnc(SCC(=O)c2ccc(F)cc2)n1-c1ccccc1,inconclusive: 7.77% [signal inhibitor],–
Cn1nnnc1SCCNCc1ccc(OCc2ccc(Cl)cc2)cc1,inconclusive: -3.1% [signal inhibitor],–
O=C(Nc1cccc(Cl)c1)C1CCCN1S(=O)(=O)c1cccc2cccnc12 (stereo not drawn),inconclusive: 10.1% [signal inhibitor],–
Cc1ccc(CN2C(=O)c3ccccc3Sc3ccc(C(=O)NCCCN4CCOCC4)cc32)cc1,inconclusive: 0.445% [signal inhibitor],–
Cc1ccc2nc(Nc3ccc4[nH]c(=O)[nH]c4c3)c(-n3nc(C)cc3C)nc2c1,inactive: -11.9%,–
O=C(COC(=O)C1c2ccccc2Oc2ccccc21)Nc1ccc2c(c1)OCO2,inconclusive: 3.12% [signal inhibitor],–
Cc1oc(-c2cccc(Cl)c2)nc1CN1CCC(C(=O)NCCc2ccc(Cl)cc2)CC1,inconclusive: 1.37% [signal inhibitor],–
CCC[C@@H]1O[C@@H]2C[C@@H]3[C@H]4CCC5=CC(=O)C=C[C@@]5(C)[C@H]4[C@H](O)C[C@@]3(C)[C@@]2(C(=O)CO)O1,"inconclusive: 14.7% [signal activator] [at 25.6 µM, scaled: untreated 0%, proteasome inhibitor 100%]",–
CCc1ccc(C2=C(C)C(N3CCC(C(=O)NCCc4ccco4)CC3)=NS2(=O)=O)cc1,inactive: -1.05%,–
CCOc1ccc(-c2nnn(CCC(=O)O)n2)cc1OC,–,"inconclusive: 25.1 µM [signal inhibitor, partial curve]"
COc1ccc(C(=O)Nc2ccc(N3CCOCC3)c(C(F)(F)F)c2)cc1OC,inconclusive: 5% [signal inhibitor],–
C(=N\n1cnnc1)/c1cn(-c2cccs2)nc1-c1ccccc1,inactive: -0.512%,–
COc1cc(-c2nc(S(=O)(=O)c3ccc(C)cc3)c(N(C)C)o2)cc(OC)c1OC,inactive: 2.22%,–

SMILES,IkBa stabilization activation,Potency
CCCSc1nc2c(cnn2-c2ccc(C)cc2)c(=O)[nH]1,inactive: -2.39%,–
CCc1cccc(NC(=O)C(CC(C)C)NS(=O)(=O)c2ccc3c(c2)oc(=O)n3C)c1 (stereo not drawn),inconclusive: 1.51% [signal inhibitor],–
COc1ccccc1CN1CCC(CNC(=O)c2cnn(-c3ccc(C)c(C)c3)c2C2CCN(C(=O)OC(C)(C)C)CC2)CC1,inconclusive: -2.82% [signal inhibitor],–
COc1ccc(Cc2nnc(SCC(=O)Nc3ncc(C)s3)o2)cc1,inactive: 5.74%,–
COC(=O)C1=C(C)N(C)C(C)=C(C(=O)OC)C1c1ccc(C(=O)OC)cc1,–,"inconclusive: 12.6 µM [rising, partial curve]"
COc1ccccc1NC(=O)c1cc(C2CC2)nc2c1c(C)nn2-c1ccc(C)cc1,inconclusive: 2.45% [signal inhibitor],–
O=c1c(N2CCc3ccccc3C2)csc2ccc(Br)cc12,inconclusive: 12% [signal inhibitor],–
COc1ccccc1Cc1nc2ccccc2nc1SCC(=O)N1CCC(C)CC1,inconclusive: 5.45% [signal inhibitor],–
CCOC(=O)C1CCCN(C(=O)c2cnn3c(C(F)F)cc(-c4ccc(C)cc4)nc23)C1 (stereo not drawn),inactive: 3.25%,–
CCOC(=O)c1cc(-c2ccccc2)n(CCCC(=O)Nc2cc(C)ccc2OC)c1C,inactive: -1.48%,–
Cc1nc2c(ccc3nc(NC(=O)c4ccc(S(=O)(=O)N(C)C)cc4)sc32)s1,inconclusive: 11.9% [signal inhibitor],–
COc1ccc(Oc2nc(C)nc3c2oc2ccccc23)cc1,inactive: 2.63%,–
Cc1ccc2nc(SCC(=O)Nc3ccc(C#N)cc3)[nH]c2c1,inconclusive: 9.76% [signal inhibitor],–
Cc1c(C(=O)N2CCC(C)CC2)c(S(=O)(=O)N2CCN(c3cccc(Cl)c3)CC2)c(C)n1C,inconclusive: 1.21% [signal inhibitor],–
CN1C(=O)c2[nH]nc(-c3ccc(F)cc3)c2C1c1ccccn1 (stereo not drawn),inactive: 2.45%,–
COc1ccc(S(=O)(=O)c2cn(Cc3ccccc3)c3cc(F)c(F)cc3c2=O)cc1,inconclusive: 3.33% [signal inhibitor],–
COC(=O)c1sc(N2C(=O)C(O)=C(C(=O)c3ccc(C)o3)C2c2ccc(F)cc2)nc1C (stereo not drawn),inactive: 0.107%,–
COc1ccccc1NC(=O)c1cc(S(=O)(=O)N2CCc3ccccc32)ccc1F,inconclusive: 1.82% [signal inhibitor],–
COc1ccc2[nH]c(=O)c(C(c3nnnn3C3CCCCC3)N3CCN(C)CC3)cc2c1 (stereo not drawn),inactive: 3.3%,–
COC(=O)c1cccc(-n2nnnc2SCC(=O)Nc2nc3c(s2)CCCC3)c1,inconclusive: 3.23% [signal inhibitor],–
Cc1ccccc1NS(=O)(=O)c1ccc(OCC(=O)NCc2ccco2)cc1,inconclusive: 3.29% [signal inhibitor],–
COc1cc(-c2nnc(SCC(=O)Oc3ccccc3Cl)o2)cc(OC)c1OC,inconclusive: 1.55% [signal inhibitor],–
COc1ccc(S(=O)(=O)c2cn(Cc3ccccc3)c3ccc(OC)cc3c2=O)cc1,inconclusive: -0.636% [signal inhibitor],–

SMILES,IkBa stabilization activation,Potency
CN(C)c1ccc(C(CNS(=O)(=O)c2ccc(F)cc2)N2CCc3ccccc32)cc1 (stereo not drawn),inconclusive: 4.82% [signal inhibitor],–
COc1ccc(-c2nc(C#N)c(NCCc3ccccc3)o2)cc1,inactive: -1.12%,–
CCn1c(SCc2ccccc2Cl)nc(=O)c2c(C(=O)OC)cc(C3CC3)nc21,inconclusive: -4.31% [signal inhibitor],–
Cc1cc(C)c2c(-n3cccc3)c(C(=O)NCCCN3CCCCC3C)sc2n1 (stereo not drawn),inconclusive: 1.53% [signal inhibitor],–
COC(=O)Cc1c(C)nc2nc(-c3ccc(OC)cc3)[nH]n2c1=O,–,"inconclusive: 15.8 µM [signal inhibitor, partial curve]"
Cc1ccc(S(=O)(=O)N(CC(=O)NCc2ccco2)Cc2ccccc2F)cc1,inconclusive: 1.89% [signal inhibitor],–
CC(=O)Nc1nonc1-c1nnc(SCc2ccc(Cl)cc2)n1C,inconclusive: 1.06% [signal inhibitor],–
C=CCn1cnc2c(c1=O)c1nc3ccccc3nc1n2/N=C/c1cccc(OC)c1OC,inactive: -0.684%,–
COc1ccc2[nH]c(=O)c(CN(CC3CCCO3)C(=O)Nc3ccccc3OC)cc2c1 (stereo not drawn),inconclusive: 1.1% [signal inhibitor],–
CN1C(=O)c2ccccc2Sc2ccc(NC(=O)N3CCN(c4ccccc4F)CC3)cc21,inactive: 0.429%,–
Clc1ccc(CCNC(c2nnc(-c3ccccc3)o2)c2ccccc2Cl)cc1 (stereo not drawn),inactive: 12.1%,–
Cc1ccc2[nH]c(=O)c(CN(Cc3cccs3)Cc3nnnn3Cc3ccccc3)cc2c1,–,"inconclusive: 3.98 µM [signal inhibitor, full curve]"
CCN1CCN(c2ncnc3c2nnn3Cc2ccccc2)CC1,inactive: -0.0239%,–
O=C(Nc1cc(NC(=O)c2ccccc2Cl)ccc1Cl)c1ccccc1,inconclusive: 1.89% [signal inhibitor],–
CCOc1ccccc1CNC(=O)c1ccc2nc(Cc3ccc(OC)cc3)oc2c1,inconclusive: -0.159% [signal inhibitor],–
O=C(O)CCCNc1cc(N2CCC3(CC2)OCCO3)c2noc3c2c1C(=O)c1ccccc1-3,inconclusive: 11.2% [signal inhibitor],–
CCc1ccc(NC(=O)CSc2cn(CC(=O)N3CCCC3)c3ccccc23)cc1,inactive: -1.05%,–
CCOc1ccccc1NC(=O)N1CCCC(c2nc3c(nnn3Cc3ccc(C)cc3)c(=O)[nH]2)C1 (stereo not drawn),inconclusive: 2.57% [signal inhibitor],–
O=S1(=O)CCN(Cc2ccccn2)CC1,"inactive: -0.0644% [at 11.4 µM, scaled: untreated 0%, proteasome inhibitor 100%]",–
Cc1ccc(OCC(=O)Nc2ccc(S(=O)(=O)Nc3ncccn3)cc2)c(C(C)(C)C)c1,inconclusive: 3.99% [signal inhibitor],–
O=c1c2sc3ccccc3c2n(Cc2cccc(C(F)(F)F)c2)c(=O)n1Cc1ccco1,inconclusive: 1.23% [signal inhibitor],–
Cc1ccccc1-c1nc(-n2ccnc2)c2ccccc2n1,"inactive: 0.296% [at 11.4 µM, scaled: untreated 0%, proteasome inhibitor 100%]",–
